Assay results reported in patent US20120251557A1 (VERENIGING VOOR CHRISTELIJK HOGER ONDERWIJS …, published 2012).

How the values were obtained:
CD45RO from human PBL = molecular target: T1, CD45RO from human PBL (human, UniProt P08575-4 26-1145); assay: ELISA: MGL-Fc-coated plate, PBL lysate, detection with anti-CD45RO; '-' = no binding
T1 construct: Probed with anti-CD45RO after capture on MGL-Fc
T1 sequence (looked up): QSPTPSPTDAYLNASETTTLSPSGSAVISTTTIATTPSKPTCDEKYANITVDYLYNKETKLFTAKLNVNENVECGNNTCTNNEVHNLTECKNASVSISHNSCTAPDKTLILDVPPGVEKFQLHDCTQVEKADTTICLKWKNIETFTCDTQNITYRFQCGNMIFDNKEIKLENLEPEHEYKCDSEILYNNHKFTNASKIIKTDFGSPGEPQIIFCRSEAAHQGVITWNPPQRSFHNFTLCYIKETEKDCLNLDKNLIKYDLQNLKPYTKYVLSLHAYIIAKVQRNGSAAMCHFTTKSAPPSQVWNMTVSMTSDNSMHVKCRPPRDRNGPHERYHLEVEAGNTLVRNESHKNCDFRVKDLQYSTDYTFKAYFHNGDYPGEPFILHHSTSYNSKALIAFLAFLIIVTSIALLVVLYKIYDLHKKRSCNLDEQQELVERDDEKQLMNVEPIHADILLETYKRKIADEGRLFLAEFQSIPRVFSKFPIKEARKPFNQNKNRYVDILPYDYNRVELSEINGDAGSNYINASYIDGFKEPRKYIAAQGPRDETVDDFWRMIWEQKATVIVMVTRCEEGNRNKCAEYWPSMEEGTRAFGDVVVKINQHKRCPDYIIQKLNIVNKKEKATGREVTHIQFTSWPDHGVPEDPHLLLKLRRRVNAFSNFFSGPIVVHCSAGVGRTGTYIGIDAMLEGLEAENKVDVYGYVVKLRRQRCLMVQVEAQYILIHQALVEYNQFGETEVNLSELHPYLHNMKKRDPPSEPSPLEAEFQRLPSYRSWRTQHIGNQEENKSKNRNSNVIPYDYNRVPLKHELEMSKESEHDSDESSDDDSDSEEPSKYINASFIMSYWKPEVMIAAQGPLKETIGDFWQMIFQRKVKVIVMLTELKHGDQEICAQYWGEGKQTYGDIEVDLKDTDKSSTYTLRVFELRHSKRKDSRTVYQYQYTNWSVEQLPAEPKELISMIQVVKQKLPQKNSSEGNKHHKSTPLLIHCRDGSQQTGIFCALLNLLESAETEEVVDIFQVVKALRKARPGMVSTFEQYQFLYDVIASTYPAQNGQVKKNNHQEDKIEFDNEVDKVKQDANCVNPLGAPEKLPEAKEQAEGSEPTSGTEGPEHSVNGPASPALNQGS
Description: MGL-Fc ligand ELISA. NUNC maxisorb plates (Roskilde, Denmark) were coated with goat anti-human-Fc antibody (4 μg/ml for 1 hour at 37° C., Jackson), followed by a 1% BSA blocking step (30 minutes at 37° C.) and MGL-Fc (1 μg/ml for 1 hour at 37° C.). MGL-Fc coated plates were incubated overnight at 4° C. with cell lysates (10.10⁶ cells/ml for cell lines, 500.10⁶/ml for PBL). After extensive washing, 1 μg/ml monoclonal antibodies were added for 2 hours at room temperature. Binding was detected using a peroxidase-labeled goat anti-mouse antibody (Jackson).

[1] = molecular target: T2, secreted tumor-associated MUC1 from the supernatant of ZR75 tumor cells (UniProt P15941 24-1097, limits assumed); assay: ELISA on coated MUC1 from ZR75 supernatant; inhibited by EGTA
T2 construct: Coated on ELISA plates, or loaded on beads through MUC1 antibodies; also called secreted MUC1 from tumor cell line ZR75
Description: Example 2, FIG. 8. MGL-Fc detects secreted MUC1 from tumor cell line ZR75. FIG. 8A, MUC1 was harvested out of the supernatant of cultured ZR75 tumor cells and coated on ELISA plates. Both MGLFc and DC-SIGNFc were used to look for carbohydrate-binding epitopes expressed on tumor-associated MUC1. […] Furthermore, EGTA, which inhibits lectin binding to carbohydrates, illustrates that the recognition of MGL to MUC1 is carbohydrate mediated. FIG. 8B, in a second experiment, the tumor-associated MUC1 were coated on fluorescent beads coupled with MUC1 antibodies. Fluorescent MUC1-coupled beads were added to MGL-expressing CHO cells and untransfected CHO cells.
This experiment is depicted in FIG. 8 of Example 2. In FIG. 8A, MUC1 was harvested out of the supernatant of cultured ZR75 tumor cells and coated on ELISA plates. Both MGLFc and DC-SIGNFc were used to look for carbohydrate-binding epitopes expressed on tumor-associated MUC1. […] Furthermore, EGTA, which inhibits lectin binding to carbohydrates, illustrates that the recognition of MGL to MUC1 is mediated by the expression of carbohydrates.

[2] = molecular target: T3, MUC1 on transfected CHO cells (UniProt P15941 24-1255, limits assumed); assay: flow cytometry: MGL-Fc 0.5 µg/ml on CHO-MUC1 and parental CHO cells
T3 construct: whole, on cells; also called CHO-MUC1
Description: Chinese hamster ovary cells (CHO) cells and CHO cells transfected with MUC1 were incubated with MGL-Fc (0.5 μg/ml) in Tris-sodium buffer for 30 minutes at room temperature. The cells were washed and further incubated with FITC-labeled goat anti-human IgG (Jackson Laboratories) for 30 minutes. Binding was analyzed by flow cytometry.
CHO cells were transfected with the MUC1 protein and binding of MGL-Fc to these cells to MGL was measured by flow cytometry. MGL-Fc specifically interacted with MUC1 transfected into CHO cells, whereas parental cells are not bound (Example 8, FIG. 1A). Next, dexamethasone-treated DC were incubated in the presence of CHO cells or CHO cells expressing MUC1.

B1: MGL-Fc (extracellular part of human MGL, amino acids 61-289, fused at the C-terminus to human IgG1-Fc) (Fc fusion, UniProt Q8IUN9-2 61-289, looked up)
chain: QNSKFQRDLVTLRTDFSNFTSNTVAEIQALTSQGSSLEETIASLKAEVEGFKQERQAVHSEMLLRVQQLVQDLKKLTCQVATLNNNGEEASTEGTCCPVNWVEHQDSCYWFSHSGMSWAEAEKYCQLKNAHLVVINSREEQNFVQKYLGSAYTWMGLSDPEGAWKWVDGTDYATGFQNWKPGQPDDWQGHGLGGGEDCAHFHPDGRWNDDVCQRPYHWVCEAGLGQTSQ[skipping human IgG1 Fc]
notes: range 61-289;domain: IgG1-Fc; Produced in CHO cells; The numbering 61-289 belongs to the 292-residue form of MGL, so it may not fit the canonical UniProt entry; also called MGL-human Fc; human MGL-Fc
Q: Does B1 bind (CD45RO from human PBL)?
A: Result: no binding

Q: Does B1 bind [1]?
A: Result: binds

Q: Does B1 bind [2]?
A: Result: binds
